Laboratory results from the supplement of paper PMC8948288.
The sequences are guide strands of siRNAs; only the seed at positions 2 to 7 varies.

Tests used:
H4 = assay: cell viability relative to siNT1 (ATP content); H4 human neuroglioma and GL261 mouse glioma; higher = less toxic; conditions: siRNA concentration 10 nM; 96 h; human
Method: (§1)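 Arrayed screen of all 4096 6mer seeds. Each seed sits at guide-strand positions 2-7 of a neutral 19mer siRNA backbone (siNT1-based, passenger strand 2'-O-methyl modified at positions 1-2 to block RISC loading, 3' DNA overhangs). The guide strand is built here as U + seed + ACAUGUAAACCA. Cells were reverse transfected in triplicate in 384-well plates (H4 at 10 nM, GL261 at 25 nM) with Lipofectamine RNAiMAX. Viability was read as ATP content (CellTiter-Glo) 96 h after transfection and normalised to siNT1 (%).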

GL261 = assay: as above; conditions: siRNA concentration 25 nM; 96 h; mouse
Method: as §1
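Note: cells reverse transfected with siRNA duplexes via lipid reagent, ATP read by luminescence, triplicate wells, values scaled to mean viability with non-targeting control siNT1.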

Row | Sequence | cell viability (H4) | cell viability (GL261)
1 | UAUAACAACAUGUAAACCA | 118% | 45.7%
2 | UAUAACCACAUGUAAACCA | 79.5% | 39.5%
3 | UAUAACGACAUGUAAACCA | 93.7% | 47.8%
4 | UAUAACUACAUGUAAACCA | 99.5% | 50.9%
5 | UAUAAGAACAUGUAAACCA | 95.3% | 73.4%
6 | UAUAAGCACAUGUAAACCA | 81.7% | 30.5%
7 | UAUAAGGACAUGUAAACCA | 94.6% | 69.2%
8 | UAUAAGUACAUGUAAACCA | 104% | 58.3%
9 | UAUAAUAACAUGUAAACCA | 103% | 51.5%
10 | UAUAAUCACAUGUAAACCA | 92.2% | 56.1%
11 | UAUAAUGACAUGUAAACCA | 80% | 72.5%
12 | UAUAAUUACAUGUAAACCA | 83.2% | 47.9%
13 | UAUACAAACAUGUAAACCA | 98% | 68.6%
14 | UAUACACACAUGUAAACCA | 65.3% | 42.8%
15 | UAUACAGACAUGUAAACCA | 120% | 45.9%
16 | UAUACAUACAUGUAAACCA | 109% | 68.1%
17 | UAUACCAACAUGUAAACCA | 97.2% | 70.2%
18 | UAUACCCACAUGUAAACCA | 52.9% | 46.7%
19 | UAUACCGACAUGUAAACCA | 82.4% | 56.5%
20 | UAUACCUACAUGUAAACCA | 74.5% | 73.2%
21 | UAUACGAACAUGUAAACCA | 106% | 59.6%
22 | UAUACGCACAUGUAAACCA | 116% | 57.2%
23 | UAUACGGACAUGUAAACCA | 91.9% | 55.2%

Row | Sequence | cell viability (H4) | cell viability (GL261)
24 | UAUACGUACAUGUAAACCA | 81.1% | 64.1%
25 | UAUACUAACAUGUAAACCA | 115% | 60.6%
26 | UAUACUCACAUGUAAACCA | 79.7% | 42%
27 | UAUACUGACAUGUAAACCA | 89.3% | 53.5%
28 | UAUACUUACAUGUAAACCA | 77.7% | 50.2%
29 | UAUAGAAACAUGUAAACCA | 104% | 66%
30 | UAUAGACACAUGUAAACCA | 71% | 56.3%
31 | UAUAGAGACAUGUAAACCA | 104% | 81.1%
32 | UAUAGAUACAUGUAAACCA | 108% | 61.5%
33 | UAUAGCAACAUGUAAACCA | 104% | 77.3%
34 | UAUAGCCACAUGUAAACCA | 38.1% | 16.3%
35 | UAUAGCGACAUGUAAACCA | 79.2% | 73.6%
36 | UAUAGCUACAUGUAAACCA | 72.9% | 35.5%
37 | UAUAGGAACAUGUAAACCA | 117% | 53.3%
38 | UAUAGGCACAUGUAAACCA | 32.4% | 7.55%
39 | UAUAGGGACAUGUAAACCA | 96.7% | 37.2%
40 | UAUAGGUACAUGUAAACCA | 57.2% | 41.3%
41 | UAUAGUAACAUGUAAACCA | 118% | 75%
42 | UAUAGUCACAUGUAAACCA | 99% | 59.9%
43 | UAUAGUGACAUGUAAACCA | 99.5% | 70%
44 | UAUAGUUACAUGUAAACCA | 93% | 85.7%
45 | UAUAUAAACAUGUAAACCA | 106% | 80.5%
46 | UAUAUACACAUGUAAACCA | 71.5% | 56.4%

Row | Sequence | cell viability (H4) | cell viability (GL261)
47 | UAUAUAGACAUGUAAACCA | 76.2% | 66.6%
48 | UAUAUAUACAUGUAAACCA | 84% | 46.8%
49 | UAUAUCAACAUGUAAACCA | 78.1% | 73.3%
50 | UAUAUCCACAUGUAAACCA | 67.7% | 21.8%
51 | UAUAUCGACAUGUAAACCA | 86.2% | 71.8%
52 | UAUAUCUACAUGUAAACCA | 99.1% | 68.5%
53 | UAUAUGAACAUGUAAACCA | 88.7% | 46.3%
54 | UAUAUGCACAUGUAAACCA | 14.9% | 20.2%
55 | UAUAUGGACAUGUAAACCA | 85.1% | 57.2%
56 | UAUAUGUACAUGUAAACCA | 95.9% | 42.3%
57 | UAUAUUAACAUGUAAACCA | 105% | 53.2%
58 | UAUAUUCACAUGUAAACCA | 84% | 55.2%
59 | UAUAUUGACAUGUAAACCA | 95.8% | 49.8%
60 | UAUAUUUACAUGUAAACCA | 82.4% | 63.7%
61 | UAUCAAAACAUGUAAACCA | 99.1% | 53%
62 | UAUCAACACAUGUAAACCA | 101% | 38.2%
63 | UAUCAAGACAUGUAAACCA | 110% | 47.5%
64 | UAUCAAUACAUGUAAACCA | 117% | 53.2%
65 | UAUCACAACAUGUAAACCA | 110% | 39.6%
66 | UAUCACCACAUGUAAACCA | 98.5% | 12.2%
67 | UAUCACGACAUGUAAACCA | 88.2% | 41.9%
68 | UAUCACUACAUGUAAACCA | 81.8% | 21.8%
69 | UAUCAGAACAUGUAAACCA | 89.4% | 40.4%

Row | Sequence | cell viability (H4) | cell viability (GL261)
70 | UAUCAGCACAUGUAAACCA | 71.2% | 18.3%
71 | UAUCAGGACAUGUAAACCA | 108% | 30.7%
72 | UAUCAGUACAUGUAAACCA | 63.2% | 45.9%
73 | UAUCAUAACAUGUAAACCA | 103% | 35.7%
74 | UAUCAUCACAUGUAAACCA | 77.3% | 29.3%
75 | UAUCAUGACAUGUAAACCA | 104% | 33%
76 | UAUCAUUACAUGUAAACCA | 102% | 58.9%
77 | UAUCCAAACAUGUAAACCA | 72.5% | 56.5%
78 | UAUCCACACAUGUAAACCA | 65.2% | 39.3%
79 | UAUCCAGACAUGUAAACCA | 88.1% | 36.5%
80 | UAUCCAUACAUGUAAACCA | 101% | 69.9%
81 | UAUCCCAACAUGUAAACCA | 39.1% | 48.3%
82 | UAUCCCCACAUGUAAACCA | 38.5% | 28.5%
83 | UAUCCCGACAUGUAAACCA | 96.1% | 58%
84 | UAUCCCUACAUGUAAACCA | 66.7% | 15.6%
85 | UAUCCGAACAUGUAAACCA | 90.5% | 63.6%
86 | UAUCCGCACAUGUAAACCA | 65.3% | 41.2%
87 | UAUCCGGACAUGUAAACCA | 69.3% | 54.5%
88 | UAUCCGUACAUGUAAACCA | 82% | 50.8%
89 | UAUCCUAACAUGUAAACCA | 92.2% | 74.2%
90 | UAUCCUCACAUGUAAACCA | 46.7% | 32.5%
91 | UAUCCUGACAUGUAAACCA | 86.7% | 60.9%
92 | UAUCCUUACAUGUAAACCA | 86.8% | 65.9%

Row | Sequence | cell viability (H4) | cell viability (GL261)
93 | UAUCGAAACAUGUAAACCA | 105% | 81.5%
94 | UAUCGACACAUGUAAACCA | 88.8% | 47.3%
95 | UAUCGAGACAUGUAAACCA | 91.7% | 59.7%
96 | UAUCGAUACAUGUAAACCA | 114% | 70.2%
97 | UAUCGCAACAUGUAAACCA | 105% | 81.3%
98 | UAUCGCCACAUGUAAACCA | 75.1% | 17.9%
99 | UAUCGCGACAUGUAAACCA | 79.3% | 52%
100 | UAUCGCUACAUGUAAACCA | 90.1% | 68.1%
101 | UAUCGGAACAUGUAAACCA | 90.2% | 52.4%
102 | UAUCGGCACAUGUAAACCA | 77.3% | 73%
103 | UAUCGGGACAUGUAAACCA | 87.5% | 44.9%
104 | UAUCGGUACAUGUAAACCA | 74% | 37.1%
105 | UAUCGUAACAUGUAAACCA | 106% | 63.9%
106 | UAUCGUCACAUGUAAACCA | 108% | 41.2%
107 | UAUCGUGACAUGUAAACCA | 110% | 58.3%
108 | UAUCGUUACAUGUAAACCA | 112% | 51.1%
109 | UAUCUAAACAUGUAAACCA | 115% | 49%
110 | UAUCUACACAUGUAAACCA | 95.6% | 38.9%
111 | UAUCUAGACAUGUAAACCA | 106% | 45.5%
112 | UAUCUAUACAUGUAAACCA | 93% | 38.1%
113 | UAUCUCAACAUGUAAACCA | 105% | 31.6%
